The values that follow come from PubChem BioAssay AID2202238 (Ras Initiative Chemistry Research Team, Frederick National …, 2025).

This is one part of the list. These are further read-outs of the screen, such as a control signal, another cell line or another target. No call is given for them.

The target of the experiment is GTPase KRas (Homo sapiens) (UniProt P01116). Briefly: Covalent labelling of cysteine mutants by fragments, read by mass spectrometry (AID 2202238). More on the design: protein at 5 µM with 500 µM competing thiol for 1.5 h. As to conditions: KRAS G12D cysteine mutants, disulfide tethering, MALDI-TOF labeling, stronger effect = higher value, fragment at 500 µM.
Where [1] appears, read: measured here: G75C mutant labeling.
Where [2] appears, read: measured here: H94C mutant labeling.
Where [3] appears, read: measured here: I36C mutant labeling.
Setting [4] is: measured here: L120C mutant labeling.
[5] abbreviates: measured here: M67C mutant labeling.
[6] abbreviates: measured here: M72C mutant labeling.
[7] abbreviates: measured here: N86C mutant labeling.
Setting [8] is: measured here: P121C mutant labeling.
Where [9] appears, read: measured here: S122C mutant labeling.
The mark [10] stands for this setting: measured here: S136C mutant labeling.
The mark [11] stands for this setting: measured here: G60C mutant labeling.
Setting [12] is: measured here: N26C mutant labeling.

UniProt P01116, sequence (P01116 whole entry, looked up, the tested form may be a part): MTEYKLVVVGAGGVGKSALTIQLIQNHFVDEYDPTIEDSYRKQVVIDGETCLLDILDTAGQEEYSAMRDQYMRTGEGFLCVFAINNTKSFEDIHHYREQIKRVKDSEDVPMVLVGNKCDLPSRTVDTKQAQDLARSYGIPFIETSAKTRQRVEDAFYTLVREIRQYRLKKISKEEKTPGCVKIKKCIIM

On to `O=C(CCS)NCC12CC(C1)C(C(F)(F)F)O2` (stereo not given), for which the percent labeling under setting [1] came to 10.9%; the percent labeling under setting [2] stood at 35%; the percent labeling under setting [3] is 36.1%; the percent labeling under setting [4] was 33%; the percent labeling under setting [5] was found to be 34.3%; the percent labeling under setting [6] amounted to 23%. Also, the percent labeling worked out at 31.3% under setting [7], 36.6% under setting [8], 44% under setting [9] and 50.9% under setting [10].
On to `COc1ccc2cc(CNC(=O)CCS)ccc2c1`, for which the percent labeling is, setting by setting: under setting [1], 6.1%; under setting [2], 8.9%; under setting [3], 12.3%; under setting [4], 10%; under setting [5], 18.1%; under setting [6], 13.5%. Also, the percent labeling is, setting by setting: under setting [7], 4.5%; under setting [8], 11.8%; under setting [9], 8.7%; under setting [10], 20.1%.
Regarding `O=C1CCC(c2ccc(C(=O)NCCS)cc2)N1` (stereo not given), the percent labeling is, setting by setting: under setting [11], 24.6%; under setting [1], 15.6%; under setting [2], 26.6%; under setting [3], 22.5%; under setting [4], 30.5%; under setting [5], 27%. Moreover, the percent labeling reads like this: under setting [6], 27.5%; under setting [12], 38.9%; under setting [7], 26.8%; under setting [8], 26.9%; under setting [9], 27.2%; under setting [10], 39.2%.
As for `O=C(CCS)NC1(c2cccc(F)c2F)CCCC1`, the percent labeling came to 15.9% under setting [1]; 36.8% under setting [2]; 35.9% under setting [3]; 36.6% under setting [4]; 33.8% under setting [5]; 53.5% under setting [6]. Further, the percent labeling is 23.7% under setting [7], 29.8% under setting [8], 33.2% under setting [9] and 59.8% under setting [10].
As to `O=C(CCS)NCCc1ccc(-n2cnnc2)cc1`, the percent labeling was found to be 9.1% under setting [1]; 30.8% under setting [2]; 32.5% under setting [3]; 27.1% under setting [4]; 39.4% under setting [5]; 23% under setting [6]. Moreover, the percent labeling is 16.3% under setting [7], 31.2% under setting [8], 37.2% under setting [9] and 46% under setting [10].
As to `O=C(CCS)N1CCC2(CC1)OCCc1ccccc12`, the percent labeling runs as follows: under setting [1], 28.5%; under setting [2], 36.5%; under setting [3], 28.1%; under setting [4], 25.1%; under setting [5], 40%; under setting [6], 50.6%. Moreover, the percent labeling came to 18.4% under setting [7], 27.1% under setting [8], 23.1% under setting [9] and 46.4% under setting [10].
`CCOC(=O)C1C2CC(CN(C(=O)CCS)C2)N1C(=O)OC(C)(C)C` (stereo not given): the percent labeling by setting is: under setting [1], 14.4%; under setting [2], 29.8%; under setting [3], 18.5%; under setting [4], 25.9%; under setting [5], 23.8%; under setting [6], 16.3%. In addition, the percent labeling under setting [7] was found to be 19.6%, the percent labeling under setting [8] was 23.5%, the percent labeling under setting [9] is 28.4% and the percent labeling under setting [10] came out at 54.1%.
Compound `Cc1cc2ncc(C(=O)N(C)CC(=O)NCCS)c(C)n2n1` showed a percent labeling under setting [11] of 24.9%; a percent labeling under setting [1] of 9.2%; a percent labeling under setting [2] of 31.1%; a percent labeling under setting [3] of 34.9%; a percent labeling under setting [4] of 24.6%; a percent labeling under setting [5] of 24.7%. Also, the percent labeling worked out at 12.4% under setting [6]; 31.6% under setting [12]; 21.3% under setting [7]; 30.2% under setting [8]; 25.9% under setting [9]; 33.4% under setting [10].
`O=C(CCS)N1CCOCc2cc(Br)ccc21`: the percent labeling by setting is: under setting [1], 18.4%; under setting [2], 51.2%; under setting [3], 34.5%; under setting [4], 19.1%; under setting [5], 36.8%; under setting [6], 35.5%. Also, the percent labeling runs as follows: under setting [7], 29.2%; under setting [8], 27.5%; under setting [9], 21.6%; under setting [10], 46.9%.
As for `O=C(CCS)N1CCc2c(ncn2-c2ccc(F)cc2)C1`, the percent labeling by setting is: under setting [1], 30.7%; under setting [2], 43.2%; under setting [3], 45.5%; under setting [4], 32.2%; under setting [5], 44.2%; under setting [6], 51%. Further, the percent labeling by setting is: under setting [7], 31.3%; under setting [8], 31.7%; under setting [9], 31.9%; under setting [10], 59.8%.
As for `O=C(NCCS)C1COc2ccccc2O1` (stereo not given), the percent labeling runs as follows: under setting [1], 20.5%; under setting [2], 39.9%; under setting [3], 25.9%; under setting [4], 35.6%; under setting [5], 31.5%; under setting [6], 47.4%. Moreover, the percent labeling stood at 24.1% under setting [7], 34.3% under setting [8], 30.5% under setting [9] and 52.3% under setting [10].
As to `Cc1nc(C2CCN(C(=O)CCS)C2)n[nH]1` (stereo not given), the percent labeling under setting [1] worked out at 11%; the percent labeling under setting [2] came out at 26.3%; the percent labeling under setting [3] came to 36.8%; the percent labeling under setting [4] was found to be 23.1%; the percent labeling under setting [5] is 34.6%; the percent labeling under setting [6] was 14.9%. Further, the percent labeling by setting is: under setting [7], 24.7%; under setting [8], 31.7%; under setting [9], 29.7%; under setting [10], 53.8%.
For `O=C(CCS)Nc1ccc2[nH]ncc2c1Cl`, the percent labeling by setting is: under setting [1], 34.3%; under setting [2], 37%; under setting [3], 46.8%; under setting [4], 26.1%; under setting [5], 36.4%; under setting [6], 49.4%. Further, the percent labeling came to 51.8% under setting [7], 30.2% under setting [8], 27.4% under setting [9] and 59.9% under setting [10].
Consider `CC(Cc1ccc(F)c(F)c1)C(=O)NCCS` (stereo not given), for which the percent labeling came to 48.5% under setting [11]; 21.9% under setting [1]; 35.9% under setting [2]; 33.8% under setting [3]; 30.6% under setting [4]; 38.2% under setting [5]. The percent labeling by setting is: under setting [6], 46.5%; under setting [12], 44.1%; under setting [7], 26%; under setting [8], 29.5%; under setting [9], 25.6%; under setting [10], 46.1%.
Take `NC(=O)c1cc(NC(=O)CCS)ccc1Cl`: the percent labeling by setting is: under setting [1], 18.8%; under setting [2], 29.5%; under setting [3], 35.3%; under setting [4], 39%; under setting [5], 29.2%; under setting [6], 39.7%. Further, the percent labeling reads like this: under setting [7], 24%; under setting [8], 36.3%; under setting [9], 40.6%; under setting [10], 50.2%.
Compound `O=C(NCCS)C(c1ccccc1)N1CCCCC1=O` (stereo not given) displayed a percent labeling under setting [11] of 40.7%; a percent labeling under setting [1] of 18.1%; a percent labeling under setting [2] of 41%; a percent labeling under setting [3] of 23.8%; a percent labeling under setting [4] of 47.9%; a percent labeling under setting [5] of 35.5%. In addition, the percent labeling reads like this: under setting [6], 20.3%; under setting [12], 37.3%; under setting [7], 28%; under setting [8], 36.3%; under setting [9], 33.4%; under setting [10], 69.9%.
For `O=C(NCCS)c1ccc(-c2ccc(F)cc2)o1`, the percent labeling is, setting by setting: under setting [11], 15.9%; under setting [1], 12.5%; under setting [2], 10.3%; under setting [3], 9%; under setting [4], 16.4%; under setting [5], 11.9%. Also, the percent labeling was determined as 47.5% under setting [6]; 29.1% under setting [12]; 7.9% under setting [7]; 10.6% under setting [8]; 6.7% under setting [9]; 21.3% under setting [10].
Take `O=C(CCS)N1CC(O)(c2ccc(F)cc2)C1`: the percent labeling is, setting by setting: under setting [1], 23.7%; under setting [2], 30.7%; under setting [3], 38%; under setting [4], 20.6%; under setting [5], 41.1%; under setting [6], 33.7%. In addition, the percent labeling runs as follows: under setting [7], 19%; under setting [8], 35.9%; under setting [9], 36.4%; under setting [10], 47.6%.
In turn, `O=C(NCCS)[C@@H]1C[C@@H]1c1nc2ncccc2[nH]1` came in with a percent labeling under setting [11] of 25.9%; a percent labeling under setting [1] of 13.3%; a percent labeling under setting [2] of 26.1%; a percent labeling under setting [3] of 26.3%; a percent labeling under setting [4] of 33.5%; a percent labeling under setting [5] of 24.1%. Also, the percent labeling stood at 15% under setting [6]; 33.8% under setting [12]; 19.2% under setting [7]; 25.6% under setting [8]; 24.3% under setting [9]; 33.3% under setting [10].
Turning to `COc1cc2cc(C(=O)NCCS)[nH]c2cc1OC`, the percent labeling by setting is: under setting [11], 17.2%; under setting [1], 11.2%; under setting [2], 15.6%; under setting [3], 14.5%; under setting [4], 21.7%; under setting [5], 11.6%. In addition, the percent labeling was 36.1% under setting [6]; 38.5% under setting [12]; 15.8% under setting [7]; 13.5% under setting [8]; 12.8% under setting [9]; 19.1% under setting [10].
As to `Cn1c(CNC(=O)CCS)nnc1-c1ccccc1`, the percent labeling runs as follows: under setting [1], 10.9%; under setting [2], 36.6%; under setting [3], 45.6%; under setting [4], 34.6%; under setting [5], 41.9%; under setting [6], 29.1%. The percent labeling stood at 32.6% under setting [7], 39.5% under setting [8], 31.1% under setting [9] and 53.1% under setting [10].
In turn, `O=C(NCCS)C1(c2ccc(Br)cn2)CCC1` gave a percent labeling under setting [11] of 56.1%; a percent labeling under setting [1] of 22.4%; a percent labeling under setting [2] of 36.3%; a percent labeling under setting [3] of 23.1%; a percent labeling under setting [4] of 56%; a percent labeling under setting [5] of 28.1%. Also, the percent labeling reads like this: under setting [6], 41.6%; under setting [12], 41.2%; under setting [7], 25.7%; under setting [8], 28.6%; under setting [9], 24.5%; under setting [10], 45.8%.
As to `O=C(CC1=NN(c2cccc(Cl)c2)C(=O)C1)NCCS`, the percent labeling stood at 12.9% under setting [11]; 4.4% under setting [1]; 10.7% under setting [2]; 5.4% under setting [3]; 9.9% under setting [4]; 5.4% under setting [5]. For the same compound, the percent labeling by setting is: under setting [6], 0%; under setting [12], 9.2%; under setting [7], 5.5%; under setting [8], 8.3%; under setting [9], 0%; under setting [10], 10.2%.
On to `O=C1CN(Cc2occc2C(=O)NCCS)CCN1`, for which the percent labeling is, setting by setting: under setting [11], 22.3%; under setting [1], 10.7%; under setting [2], 30.7%; under setting [3], 15.4%; under setting [4], 23.7%; under setting [5], 20.8%. The percent labeling reads like this: under setting [6], 10.1%; under setting [12], 24.5%; under setting [7], 17.3%; under setting [8], 26.9%; under setting [9], 20.3%; under setting [10], 25.1%.
